# The campaign covered roughly 71,000 compounds. About 1,800 (2.5%) were called active. Inconclusive means that the source gave no clear call. Such entries were picked first, then a sample of the others. Calls follow the shape of the dose curve; as a rule, active = well fitted activation curve with a large enough effect in the signal ratio, with a control signal flat (not every such curve was filed as active); inconclusive = small, poorly fitted or top-dose-only effect, or effect the other way, or a change in a side signal; inactive = flat fitted curve, though single readings scatter; the % refers to the signal ratio. A potency beside an inconclusive call is a rough fit, not a confirmed value.
# Experiment: Cell signaling CRE-BLA (Fsk stim); as to activity change, negative = inhibition: % of control where 0% means no effect
# Settings: CHO CRE-bla reporter (cAMP response element driving beta-lactamase), forskolin EC10, beta-lactamase ratio; activity change, negative = inhibition: at 38.2 µM (top of the series) unless noted
# How it was run: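 AC50 values, positive or negative, reflect shifts in EC10 NKH 477-induced CRE-bla reporter activity in CHO cells. Incubation lasted 3 h at 37 °C before CCF4 substrate (2 h, room temperature) and ratiometric 460/530 nm reading.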
# Potency is read from the fitted curve at half-maximal effect; tags tell the direction and shape of the fitted curve.
Structure (SMILES),Potency,"activity change, negative = inhibition"
CCOC(=O)N1CCN(S(=O)(=O)c2cc3c(cc2C)NC(=O)CO3)CC1,"inconclusive: 0.398 µM [rising, single point]",–
Cc1cc(N2CCN(C(=O)c3ccco3)CC2)n2nc(-c3cccc(Cl)c3)cc2n1,–,inconclusive: -5.57%
Cc1ccc(N(CC(=O)Nc2ccc(C)cn2)S(=O)(=O)c2c(C)nn(C)c2C)cc1,–,inconclusive: -12.4%
COc1ccc(C(CNC(=O)c2cc(=O)[nH]c3ccccc23)N2CCCC2)cc1 (stereo unspecified),–,inactive: -10%
O=C1c2oc3ccccc3c(=O)c2C(c2ccc(Cl)cc2)N1c1ncccn1 (stereo unspecified),–,inactive: 7.18%
CCC(Sc1nc2n[nH]c(C)c2c(=N)n1-c1ccc(C)c(Cl)c1)C(=O)N1CCOCC1 (stereo unspecified),"inconclusive: 5.01 µM [rising, partial curve]",–
CCc1ccc2[nH]c(=O)c(CN(CCN(CC)CC)C(=O)NC3CCCCC3)cc2c1,–,inactive: -1.65%
CCn1cc(C(=O)NCCCN2CCC(C)CC2)c2cc(OC)c(OC)cc2c1=O,"inconclusive: 25.1 µM [rising, single point]",–
Cc1cnc(C(=O)Nc2cccc3cccnc23)cn1,"inconclusive: 5.01 µM [falling, single point]",–
Cc1cc(NC(=O)CSc2nc3ccccc3c(=O)n2C2CCCC2)no1,active: 12.6 µM,–
N#Cc1cccc(-c2cc(NCc3cccnc3)ncn2)c1,"inconclusive: 12.6 µM [rising, single point]",–
CCc1c(C)nc(N)nc1OCC(F)(F)C(F)F,–,inactive: 23.7%
O=c1c(-c2ccc(Cl)cc2)nc2cncnc2n1Cc1ccc(F)cc1,–,inconclusive: 11.6%
C=CCSC1=N/C(=C\c2ccc3c(c2)OCO3)C(=O)S1,–,inactive: -1.41%
O=C(CC(c1ccccc1O)N1CCCCC1)N1CCCCC1 (stereo unspecified),–,inconclusive: -16.8% [at 7.6 µM]
CN(CC(=O)Nc1ccc(F)c(Cl)c1)S(=O)(=O)c1cccc2nsnc12,–,inactive: -22.7%
CCC(CC)COC(=O)C(C#N)c1nc2ccccc2nc1N1CCOCC1 (stereo unspecified),active: 2 µM,–
COC(=O)c1c(N)n(-c2cc(OC)cc(OC)c2)c2nc3ccccc3nc12,"inconclusive: 10 µM [rising, partial curve]",–
CCOC(=O)C1CCN(C(=O)c2oc3ccc(S(=O)(=O)N4CC(C)CC(C)C4)cc3c2C)CC1 (stereo unspecified),–,inconclusive: -8.53%
O=C(C1CCC1)N1CCc2cc(S(=O)(=O)NCc3ccco3)ccc21,–,inconclusive: 18.2%
COc1ccc(N(CC(=O)NCC2CCCO2)S(=O)(=O)c2c(C)noc2C)cc1 (stereo unspecified),"inconclusive: 10 µM [rising, single point]",–

Structure (SMILES),Potency,"activity change, negative = inhibition"
CC1(Cc2ccc3c(c2)OCO3)NC(=O)NC1=O (stereo unspecified),–,inconclusive: -6.48%
COc1ccccc1OCCn1cc(C(=O)c2ccco2)c2ccccc21,–,inconclusive: -7.35%
Cn1nnc(NC(=O)c2ccc(C(C)(C)C)cc2)n1,–,inactive: -0.221%
COc1ccc(NC2=C(C(C)=O)C(c3ccc4c(c3)OCO4)C(C(C)=O)C(C)(O)C2)cc1 (stereo unspecified),"inconclusive: 20 µM [rising, single point]",–
Cc1nc2ccccc2c(=O)n1NCc1cc(Br)cs1,–,inactive: -24.5%
Cc1cc2c(s1)c1cnn(Cc3ccccc3F)c(=O)c1n2C,"inconclusive: 3.16 µM [rising, single point]",–
Cc1ccc(C(CC(=O)N2CCOCC2)c2ccco2)cc1 (stereo unspecified),–,inactive: -1.53%
COc1ccc(CCNC(=O)C2CCN(Cc3nc(-c4cccc(Cl)c4)oc3C)CC2)cc1OC,–,inconclusive: 17.3%
FC(F)(F)c1ccccc1-c1cncnc1NCCN1CCOCC1,–,inconclusive: 19.5%
Cc1cccc(-n2ncc3c(NCc4ccccn4)ncnc32)c1,"inconclusive: 12.6 µM [rising, single point]",–
Cc1ccc2cc(S(=O)(=O)NCCCC(=O)O)ccc2c1,–,inconclusive: 0.895%
COc1ccc2c(c1)OCC1=C2CCC2(C)C(=O)CC=C12 (stereo unspecified),–,inconclusive: -17.6%
Nc1c(S(=O)(=O)c2ccccc2)c2nc3ccccc3nc2n1/N=C/c1cccc(O)c1,–,inactive: 2.58%
N#Cc1nc(-c2ccccc2)oc1N1CCCCC1,"inconclusive: 10 µM [rising, single point]",–
COCCn1c(=O)c(-c2ccc(OC)cc2)nc2cnc(N3CCNCC3)nc21,"inconclusive: 2 µM [rising, partial curve]",–
CCN1CC2=C(OC(N)=C(C#N)C2c2cccs2)/C(=C/c2cccs2)C1 (stereo unspecified),–,inconclusive: -20.7%
COc1ccc(S(=O)(=O)NCc2ccc(C(=O)N3CCN(c4ccccn4)CC3)cc2)cc1,–,inconclusive: 10.3%
COc1cc(NC2=CC(=O)CC(C)(C)C2)cc(OC)c1,"inconclusive: 0.0631 µM [rising, full curve, poor fit]",–
CCNc1ncc2nc(-c3ccc(OC)cc3)c(=O)n(Cc3cccs3)c2n1,"inconclusive: 1 µM [rising, partial curve]",–
C#CCNc1nc(CC)nc2c1nnn2Cc1ccccc1F,active: 10 µM,–
N#CCCn1nnc2ccccc21,–,inconclusive: -13.9%

Structure (SMILES),Potency,"activity change, negative = inhibition"
c1ccc(Cn2nnnc2C(c2cccnc2)N2CCN(c3ccccc3)CC2)cc1 (stereo unspecified),–,inactive: 0.976%
Cc1cccc(NC(=O)C23CCC(C)(/C(=N/O)C2)C3(C)C)c1 (stereo unspecified),–,inactive: 9%
CC(=O)Nc1ccccc1OCC(=O)c1cc(C)n(Cc2cccs2)c1C,–,inactive: -14.3%
O=C(NCCc1cccc(F)c1)[C@@H]1CSC2c3ccccc3C(=O)N21 (stereo partly specified),"inconclusive: 25.1 µM [falling, single point]",–
CCOc1cc2[nH]c(=O)n(Cc3cccc(OC)c3)c(=O)c2cc1OCC,"inconclusive: 6.31 µM [rising, partial curve]",–
Cc1cc(-c2cc(C)c(O)c(C(C)(C)C)c2)cc(C(C)(C)C)c1O,–,inactive: 23.1% [at 7.6 µM]
COCCNc1ncnc2ccc(-c3ccc(C(=O)N(C)C)cc3)cc12,–,inconclusive: 23.8%
CCOC(=O)c1ccc(COC(=O)c2cc(=O)[nH]c3ccccc23)o1,"inconclusive: 25.1 µM [rising, single point]",–
Cc1ccc2[nH]c(=O)c(-c3nc4c(C)cccn4c3NCc3ccco3)cc2c1,"inconclusive: 3.98 µM [falling, single point]",–
CC(=O)c1cc2c(cc1NS(=O)(=O)c1ccc(C)cc1)OCCO2,–,inactive: 22%
Cc1ccc(NC(=O)/C(CN(C)C)=N\O)cc1,–,inconclusive: -24.5%
O=C(c1cccc(F)c1)N1CCC2(CCCN(c3ccccc3)C2)CC1,–,inconclusive: 17.1%
CCCCc1c(C)nn(-c2nnc3c4ccccc4n(CC)c3n2)c1C,"inconclusive: 3.98 µM [rising, partial curve]",–
O=c1c2ccccc2n2nnnc2n1-c1ccccc1,–,inactive: 11.6%
c1ccc(-c2csc(Nc3nc(N4CCOCC4)nc(N4CCOCC4)n3)n2)cc1,active: 2 µM,–
Cc1ccc2nc(NC(=O)CCNS(=O)(=O)c3ccc(Br)s3)sc2c1,–,inconclusive: -21.1%
Cn1c(-c2ccc(F)cc2)cnc1SCC(=O)Nc1ccccc1N1CCOCC1,–,inconclusive: 20.1%
COCCn1c(C(=O)N2CCCC2)cc2c1C[C@H]1CN(C(=O)c3ccccc3)[C@@](Cc3ccc(F)cc3)(C(=O)OC)[C@@H]21,–,inactive: -14.5%
c1ccc2sc(SN3CCOCC3)nc2c1,–,inconclusive: 1.43%
COC(=O)c1ccc(C2C3=C(Nc4nnnn42)c2ccccc2OC3)cc1 (stereo unspecified),"inconclusive: 10 µM [rising, single point]",–
Cc1cc(-n2c(C)cc(C(=O)CSc3nnnn3-c3ccccc3)c2C)no1,"inconclusive: 3.16 µM [falling, single point]",–

Structure (SMILES),Potency,"activity change, negative = inhibition"
COC(=O)CSc1nnc(-c2cccs2)n1-c1ccc(Cl)cc1,–,inconclusive: -14.2%
CCC(C)NC(=O)c1c(N)n(/N=C/c2ccccn2)c2nc3ccccc3nc12 (stereo unspecified),active: 2.51 µM,–
COC(=O)c1ccc(C(NC(=O)OCc2ccccc2)/C(=C/[C@@H](C)C(=O)NC2CCCCC2)c2cccnc2)cc1 (stereo partly specified),–,inactive: -16.7%
Cc1cc(C)cc(-n2nnc(C(=O)NCc3ccc(Cl)cc3)c2N)c1,"inconclusive: 0.0631 µM [rising, full curve]",–
Cc1cc(C)c2c(n1)nn1c(C)c(CCC(=O)NCc3ccco3)c(C)nc21,–,inactive: -0.722%
O=C(Cn1nnc(-c2ccccc2)n1)OCc1ccccc1,–,inconclusive: 5.32%
COc1ccccc1-c1nc(NCc2cccnc2)c2ccccc2n1,–,inconclusive: 27.7%
CN(C)S(=O)(=O)c1ccc(NC(=O)c2cc3ccccc3o2)cc1,–,inactive: -3.3%
COC(=O)C1=C(C)NC2=C(C(=O)CC(C)(C)C2)C1c1cccc(C)n1 (stereo unspecified),–,inactive: 7.27%
COC(=O)c1c(-c2ccc(F)cc2)csc1NC(=O)c1ccco1,active: 0.398 µM,–
COc1cccc(-c2ccc3ncnc(NCc4ccccc4OC)c3c2)c1,–,inconclusive: 2.15%
Cc1ccc(S(=O)(=O)N[C@@H](Cc2ccccc2)C(=O)CCl)cc1,–,inconclusive: -15.4%
CN(C)c1ccccc1C(=O)c1ccccc1N(C)C,"inconclusive: 10 µM [rising, partial curve]",–
COc1ccc(C(=O)Nc2ccc(S(=O)(=O)N3CCCCC3)cc2)cc1OC,–,inconclusive: 10.7%
COc1ccc(CNC(=O)Nc2cccc(C)c2)cc1,–,inconclusive: -10.8%
O=C(O)[C@@H]1[C@@H](C(=O)NCc2ccncc2)[C@@H]2C=C[C@@H]1O2,–,inactive: -4.28% [at 7.6 µM]
CCCn1c(N2CCC(Cc3ccccc3)CC2)nc2c1c(=O)[nH]c(=O)n2C,"inconclusive: 10 µM [falling, single point]",–
COc1ccccc1CNc1nc(-c2ccc3c(c2)OCO3)nc2ccccc12,–,inactive: 8.92%

# — PubChem BioAssay AID662 (National Center for Advancing Translational Sciences (NCATS), 2007)
